Test results as given in PMC4336329 (PLoS ONE, 2015).
The campaign covered roughly 310,000 compounds. About 14,000 (4.5%) showed an effect of 50% or more. Effects have a minus sign here. This is one part of the list.

Target: human ether-à-go-go-related gene (hERG) potassium channel (human, UniProt Q12809)
Test: primary screen, population patch clamp on CHO cells stably expressing hERG
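Also: peak tail current of the secondary pulse compared with the same well before compound.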

Sequence of human ether-à-go-go-related gene (hERG) potassium channel (Q12809 whole entry, looked up): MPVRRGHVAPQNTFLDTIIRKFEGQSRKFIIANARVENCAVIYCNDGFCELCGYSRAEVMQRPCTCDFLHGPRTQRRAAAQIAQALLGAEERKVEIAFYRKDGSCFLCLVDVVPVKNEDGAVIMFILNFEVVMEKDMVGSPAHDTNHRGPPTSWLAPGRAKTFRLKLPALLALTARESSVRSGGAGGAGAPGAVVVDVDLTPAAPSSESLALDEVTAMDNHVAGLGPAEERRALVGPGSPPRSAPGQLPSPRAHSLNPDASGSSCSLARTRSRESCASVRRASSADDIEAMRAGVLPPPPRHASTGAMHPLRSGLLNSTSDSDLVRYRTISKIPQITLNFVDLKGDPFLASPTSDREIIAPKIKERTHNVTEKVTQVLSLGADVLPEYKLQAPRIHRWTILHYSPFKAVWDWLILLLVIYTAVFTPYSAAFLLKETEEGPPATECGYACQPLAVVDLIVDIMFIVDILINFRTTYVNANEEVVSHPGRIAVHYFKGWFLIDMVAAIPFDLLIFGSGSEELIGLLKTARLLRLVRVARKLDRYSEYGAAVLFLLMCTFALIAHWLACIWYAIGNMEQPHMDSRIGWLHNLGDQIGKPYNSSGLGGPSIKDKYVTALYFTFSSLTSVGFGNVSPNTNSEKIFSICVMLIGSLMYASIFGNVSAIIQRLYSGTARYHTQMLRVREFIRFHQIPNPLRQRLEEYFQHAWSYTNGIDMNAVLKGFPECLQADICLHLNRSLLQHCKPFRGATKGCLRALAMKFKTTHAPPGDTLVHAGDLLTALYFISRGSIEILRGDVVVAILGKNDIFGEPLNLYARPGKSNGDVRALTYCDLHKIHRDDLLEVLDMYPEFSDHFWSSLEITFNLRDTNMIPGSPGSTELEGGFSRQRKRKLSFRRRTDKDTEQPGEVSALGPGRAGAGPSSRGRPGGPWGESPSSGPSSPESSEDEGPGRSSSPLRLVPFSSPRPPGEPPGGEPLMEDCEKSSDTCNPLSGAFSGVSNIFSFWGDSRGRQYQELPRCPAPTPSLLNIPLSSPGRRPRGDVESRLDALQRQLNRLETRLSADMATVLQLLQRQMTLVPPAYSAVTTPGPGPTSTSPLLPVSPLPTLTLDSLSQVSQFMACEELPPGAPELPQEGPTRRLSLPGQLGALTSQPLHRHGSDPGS

SMILES | hERG current change (%, negative = inhibition) at 10uM [%]
CCOC(=O)N1CCN(C(=S)NC(=O)c2c(-c3c(Cl)cccc3Cl)noc2C)CC1 | -8.9
COc1ccc(-c2cc(C(=O)Nc3ccc(S(=O)(=O)Nc4ncccn4)cc3)c3ccccc3n2)cc1 | 5.87
O=C(c1cc([N+](=O)[O-])cc([N+](=O)[O-])c1)N1CCN(C(=O)c2ccco2)CC1 | -65.3
CCN(CC(=O)Nc1c(F)cccc1F)C(=O)/C=C/c1ccc(Br)s1 | -27
CCOC(=O)C(C)(C)N(Cc1cccc(C)c1)S(=O)(=O)c1cccc([N+](=O)[O-])c1 | 0.203
NC(=O)c1cc(NC(=O)c2cc(Br)c(Br)s2)cc(C(N)=O)c1 | 9.04
Cc1ccc(N)cc1CN1CCCC1=O | 2.15
N#Cc1c(Cl)cccc1Oc1ccc(S(=O)(=O)Nc2ccccc2)cc1 | 3.79
CC(C)CC1Nc2ccc(C(=O)NCc3ccc4c(c3)OCO4)cc2NC1=O (centres unmarked) | -5.68
Cc1ccccc1/C=N/N=C1/NC(=O)CCS1 | -0.482
CCc1cc(=O)oc2c3c(cc(OCC(=O)NCCC(=O)O)c12)OC(C)(C)CC3 | 20.2
N#CC1(C#N)CC(C=O)=C(N)C1(C#N)CC(=O)C12CC3CC(CC(C3)C1)C2 (centres unmarked) | 16
Cc1cc(C)c2nc(NCc3ccccc3O)sc2c1 | 9.24
Cc1ccc(-c2nc(C)sc2CC(=O)O)cc1 | 14.7
CCc1nnc(NC(=O)c2cccc(S(=O)(=O)N3CCc4ccccc43)c2)s1 | -9.98
COc1cc(C(c2c(C)[nH][nH]c2=O)c2c(C)[nH][nH]c2=O)ccc1OS(=O)(=O)c1ccc(C)cc1 | 17.3
C=CCOC(=O)C1=C[C@H](c2ccccc2)[C@@H](CCCO)[C@H](OCC)O1 | -0.205
C(=N\n1cnnc1)/c1ccc(N2CCOCC2)s1 | 1.12
CN(C)/C=C(\c1cnc(Cl)s1)S(=O)(=O)c1ccccc1 | 27.8

SMILES | hERG current change (%, negative = inhibition) at 10uM [%]
CCCCc1ccc(CC(=O)Nc2cc(S(=O)(=O)N3CCOCC3)ccc2O)cc1 | 3.27
CN1C(=O)CSC1=Nc1cccc(C(=O)O)c1 | 11.5
CC(C)N(CCCNC(=O)C1CCN(C(=O)c2cc3sccc3n2C)CC1)Cc1ccccc1 | -23.2
CC(C)c1ccccc1NC(=O)c1cnccn1 | -4.95
N#Cc1cccc(NC(=O)CSc2n[nH]c(=O)[nH]c2=O)c1 | 9.07
O=C(CSc1cccc2cccc(Cl)c12)OCC(=O)N1CCN(C(=O)c2ccco2)CC1 | -69.2
CC(=O)N(C(C)=O)c1nc2nc(C)cc(C)n2n1 | -42.3
O=C(Cc1cccc(C(F)(F)F)c1)NCc1cccc(Cl)c1 | -8.74
Cc1ccc(-n2nc3c(=O)n(CC(=O)NCCc4ccccc4C)nc(C)c3c2C)cc1 | -0.158
CSCc1c(C(=O)Nc2ccccc2N2CCOCC2)oc2ccccc12 | 6.42
CCN(CC)CCOC(=O)c1cccc(Br)c1.Cl | -40.6
COc1ccccc1N1CCN(C(=O)c2ccc3c(=O)n(Cc4ccc5c(c4)OCO5)c(=O)[nH]c3c2)CC1 | 7.52
COc1ccc(NC(=S)N2CCC(c3ccccc3)C2)cc1 (centres unmarked) | -3.39
CCCC(=O)Nc1cc2c3c(c1)C(C)C(=O)N3CCC2 (centres unmarked) | 18.5
O=C(CSc1ccc(-c2cccc([N+](=O)[O-])c2)nn1)NC1CCCC1 | -4.51
Cc1ccc(C)c(OCC(=O)Nc2cccc(S(=O)(=O)NC3=NCCCCC3)c2)c1 | -6.6
NC(=O)CN1C(=O)C(O)(CC(=O)/C=C\c2ccc3c(c2)OCO3)c2ccccc21 (centres unmarked) | 19.5
Cc1cccc(Cn2c(C(C)(C)C)cc3cccnc32)c1 | -46.8
CN(C(=O)COC(=O)c1cc([N+](=O)[O-])ccc1Sc1ccccc1)C1CCS(=O)(=O)C1 (centres unmarked) | -9.16

SMILES | hERG current change (%, negative = inhibition) at 10uM [%]
C#CCn1c(O)c(N=NC(=O)CNC(=O)c2cccnc2)c2ccccc21 | -12.3
CCOC(=O)/C(C#N)=C/C=C1/C=CC=CN1C | 3.01
COc1ccc(-n2nnnc2-c2cccc(OC)c2)cc1 | -13.2
Cc1c(NC(=O)CN2C(=O)c3cccc4cccc2c34)c(=O)n(-c2ccccc2)n1C | 4.55
COc1ccc(C(=O)N2CCc3c([nH]c4ccccc34)C2C(F)(F)F)cc1 (centres unmarked) | 2.33
CS(=O)(=O)N(CC(=O)N1CCCC1)c1cc(C(F)(F)F)ccc1Cl | -7.58
CCOC(=O)c1c(NC(=S)Nc2cccnc2)sc(C)c1C | 11.6
Cc1ccc(NC(=O)CCSc2nnc(C)s2)cc1 | 10.2
Cn1cc(Cl)c(C(=O)Nc2nccs2)n1 | 7.94
COc1cccc(/C=N/NC(=O)c2cccs2)c1 | -6.47
Cc1nc(Nc2ccncc2)c2oc3ccccc3c2n1 | -18.7
CCOC(=O)C1CCN(C(=O)c2cnn3c(C)cc(C)nc23)CC1 | 3.65
CSc1ccc(C2c3[nH]c4ccccc4c3CCN2C(=O)c2cc(C)n(C)n2)cc1 (centres unmarked) | 32.6
Cc1ccc(C)c(C(=O)Nc2nc3ccccc3[nH]2)c1 | 25.9
C=CCC1c2cccc(C(=O)OC)c2C(=O)N1c1ccccc1 (centres unmarked) | 10.9
Cc1ccc(C(=O)NCc2ccncc2)cc1S(=O)(=O)N1CCOCC1 | -2.64
COc1cc(CCC(=O)Nc2nccs2)cc(OC)c1OC | 3.1
O=C(c1ccncc1)N1N=C(c2ccc(Br)cc2)CC1c1ccccc1O (centres unmarked) | 0.25
